# System: Staphyloccus aureus
# Assay: In vivo survival of mice infected intraperitoneally with Staphylococcus aureus
# Settings: 50 mg/kg single oral dose 30 minutes after infection; 12 mice; untreated controls: none survived
# Procedure: 12 white mice of strain CF1, which had been infected intraperitoneally each with about 1.5 × 10^8 Staphyloccus aureus organisms, were treated 30 minutes after the infection with 50 mg/kg of the compound from Example 13 in a single oral dose. […] Of 12 un-treated control animals, no animals survived after 24 hours.
smiles,measurement,value
"NC(=O)Nc1n[n+]([O-])c2ccccc2[n+]1[O-] [Example 13, 1,4-dioxo-benzo-1,2,4-triazin-3-yl-urea]",survival of infected animals after 24 hours,All animals survived the infection after 24 hours

# From patent US3957779A, “Benzo-1,2,4-triazines” (Bayer Aktiengesellschaft, priority 1972, dated 1976)
